In US5328921A, “Aryl pyridinium compounds which are useful in treating shock” (American Cyanamid Company, priority 1992, dated 1994):
The name of at least one read-out is uncertain.

Molecular target: T1, PAF receptor (Oryctolagus cuniculus, UniProt G1TEI7)
T1 construct: centrifuged at 800 rpm for 10-15 minutes at room temperature to recover the platelet rich plasma (PRP); endogenous in cells; host or cells: rabbit platelets (platelet rich plasma from citrated blood of male New Zealand White rabbits)
Test: In vitro PAF antagonism: inhibition of PAF induced platelet aggregation in rabbit platelet rich plasma
Format: cell-based, rabbit (male New Zealand White)
Settings: Dose 1.00E-05 M; PAF challenge 5.00E-08 M; rabbit PRP
Protocol: Test compounds are evaluated as PAF receptor antagonists in vitro by measuring inhibition of PAF (platelet activating factor) induced platelet aggregation. Platelet aggregation is measured by a modification of the method described in A. Wissnet, et. al., J. Med. Chem., 27 1174, 1984.
Approximately 120-240 ml of blood is collected by cardiac puncture from unanesthetized male New Zealand White rabbits (Whaley's Summit View Farms, Belvedere, N.J.) with the use of 3.2% sodium citrate anticoagulant (1 part of citrate/10 parts of blood). All syringes and pipers are plastic. The blood is gently mixed and immediately centrifuged at 800 rpm for 10-15 minutes at room temperature to recover the platelet rich plasma (PRP). Platelet poor plasma (PPP) is prepared by centrifuging PRP at 2800 rpm for 10 minutes at room temperature.
Dilutions (113000) of PRP in Isoton, diluent are made and platelet counts are determined on a Coulter Thrombocounter which is standardized with platelet reference standards (Interscience Platelet Control, Portland, Oreg.). PRP platelet counts are adJusted to approximately 400,000-500,000 platelets/11 by the addition of PPP.
L-PAF (Platelet Activating Factor) is obtained from Calbiochem. A stock solution of 1-2 E-3M is prepared in 10% ethanol in water or 100% methanol and serial working dilutions are made using saline. E-3M stock solutions of test compounds are prepared in 100% methanol and serially diluted in PBS. Sonication of samples before testing in biological screens assists in the solubility of compounds in the liquid medium. All solutions are made up in plastic tubes, stored on ice and protected from heat and light. Solutions are prepared fresh or frozen at -20° C. and used within 48 hours.
Incubation mixtures consisted of 400 11 PRP, 50 11 of saline diluent or test compound and 50 11 of PAF agohist. More specifically, 40011 of PRP is stabilized in a cuvette for 1-2 minutes at 37° C. in the aggregometer to achieve a stable baseline, then 50 11 of saline or test compound is added and incubated for 5 minutes before addition of the challenge concentration of PAF. A submaximal concentration is determined from the dose response curve for PAF for that experiment. In general, the challenge concentration is 5E-8 or 1E-7M. Aggregation is monitored for 5 minutes. Samples containing test compound or diluent are run simultaneously for comparison. Test compounds are initially evaluated at a screening concentration of 1E-SM.
The recording equipment consists of a dual channel Chronolog aggregometer connected to a dual channel 10MV full scale deflection Omniscribe chart recorder (Houston Instruments). The chart recorder is calibrated daily with the use of a suspension of Bio-Rad latex beads (S-X 12 400 mesh) which has a density slightly greater than rabbit PRP. The bead suspension is used to set the 0% light transmission mark and clear water is used to set the 100% light transmission mark. These limits defined a full scale deflection. The aggregation traces are analyzed by a digitizing method (C. Kohler and B. Zoltan, J. Pharm. Methods, 12, 113, 1984) with x, y coordinate data stored in a computer file. A suitable program computes parameters of interest such as the magnitude of aggregation.

T1 sequence (G1TEI7 1-342): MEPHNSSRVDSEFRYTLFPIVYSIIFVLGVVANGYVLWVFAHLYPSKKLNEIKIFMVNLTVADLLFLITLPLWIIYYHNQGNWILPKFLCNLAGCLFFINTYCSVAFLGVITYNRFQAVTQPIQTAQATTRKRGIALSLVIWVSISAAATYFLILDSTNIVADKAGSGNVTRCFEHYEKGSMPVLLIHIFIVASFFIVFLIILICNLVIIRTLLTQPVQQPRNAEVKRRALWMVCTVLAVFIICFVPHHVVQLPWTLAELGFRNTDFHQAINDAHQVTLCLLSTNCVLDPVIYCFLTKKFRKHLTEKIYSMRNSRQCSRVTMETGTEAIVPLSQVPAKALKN

Structure (SMILES)	% INH (% of inhibition of PAF induced platelet aggregation)
CCCCCCCCCCCCCCOc1ccc(CN(Cc2cc[n+](C)cc2)C(C)=O)cc1.[I-] [4-[[Acetyl[[4-(tetradecyloxy)phenyl]methyl]amino]-methyl]-1-methylpyridinium iodide]	65%
CCCCCCCCCCCCCCOc1ccc(C(=O)N(Cc2cccc[n+]2[O-])C(C)=O)cc1C(C)(C)C [N-Acetyl-3-(1,1-dimethylethyl)-N-(2-pyridinylmethyl)-4-(tetradecyloxy)benzamide N'-oxide]	20%
